Reference: PubChem BioAssay AID1346428 (National Center for Advancing Translational Sciences (NCATS), 2018)
The whole screen tested about 48,000 compounds, of which about 1,200 (2.5%) were called active. Inconclusive results (about 2%) are left out.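 Rule for the calls: active = activation of at least 60% and not above a set upper limit (about 1 call in 100 departs from these limits); inconclusive = activation of 40% to 60%, or above that upper limit; inactive = activation under 40%.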 The list shows a part of the results.
Note: 0% is about no effect.

The compounds below were run against Probable G-protein coupled receptor 32 (Homo sapiens) (UniProt O75388) (assay: qHTS for Agonists of Human Resolvin D1 Receptor DRV1). Conditions: CHO-K1 GPR32 beta-arrestin PathHunter luminescence, 90 min; at 76.9 µM; active compounds read high; zero percent set by DMSO-only wells.
UniProt O75388, sequence (O75388 whole entry, looked up, the tested form may be a part): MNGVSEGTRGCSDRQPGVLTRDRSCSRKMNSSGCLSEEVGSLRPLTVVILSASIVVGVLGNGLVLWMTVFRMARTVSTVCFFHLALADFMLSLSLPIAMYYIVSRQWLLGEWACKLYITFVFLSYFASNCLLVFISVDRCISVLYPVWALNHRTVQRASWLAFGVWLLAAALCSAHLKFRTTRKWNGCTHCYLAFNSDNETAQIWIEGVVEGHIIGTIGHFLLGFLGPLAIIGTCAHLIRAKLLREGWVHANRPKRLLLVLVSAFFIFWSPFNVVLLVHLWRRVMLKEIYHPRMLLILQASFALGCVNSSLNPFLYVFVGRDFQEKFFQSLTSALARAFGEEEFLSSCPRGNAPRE
Summary of the method: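 Agonism was scored by beta-Gal fragment complementation (chemiluminescent read, 1 h detection at ambient temperature) reporting beta-arrestin binding to GPR32 in engineered CHO-K1 cells. Compound treatment lasted 90 min at 37 C, normalized to a DMSO basal control.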
`COc1ccc(OCc2nnc(-c3ccccc3)o2)cc1` was tested, and the activation was inactive: 23.2%. With `COc1ccc(S(=O)(=O)Nc2cc(-c3cn4ccccc4n3)ccc2C)cc1` the activation was inactive: 19.1%. `Cc1cccc(-n2ncc(C(=O)N3CCC(C)CC3)c2C2CCN(C(=O)OC(C)(C)C)CC2)c1` was tested, and the activation was inactive: -13.3%. For `COc1cc(C2CC(=O)Nc3c2c(=O)n(C)c(=O)n3C)cc(OC)c1OC` (configuration not stated), the activation was inactive: -1.72%. `CCOC(=O)c1cccc(NC(=O)CCCn2c(C)c3cnn(-c4ccccc4)c(=O)c3c2C)c1` was tested, and the activation was inactive: 4.24%. With `COc1ccc(-c2cc(C(C)=O)c(C)n2CCC(=O)NCc2ccc(F)cc2)cc1` the activation was inactive: -18.7%. For `Cc1ccc(NC(=O)c2cc3c(=O)[nH]c4ccccc4c3n2C)cc1F`, the activation was inactive: 13.5%. In the case of `Cc1ccc(CNC(=O)CCC(=O)N2CC(C)Sc3ccccc32)cc1` (configuration not stated), the activation is reported as inactive: -17.5%. `CCCCn1c(CNC(=O)c2ccc(OC)cc2)nnc1SCC(=O)Nc1ccccc1` was tested, and the activation was inactive: 9.77%. In the case of `CC[C@]12CCCN3CCc4c(n(c5ccccc45)C(=O)C1)[C@@H]32`, the activation is reported as inactive: -26.8%. For `CCN(CC)c1cc2c(cc1F)c(=O)c(S(=O)(=O)c1ccccc1)cn2Cc1ccccc1`, the activation was inactive: -20.9%. `COc1ccc(CCNC(=O)NCc2noc3ccc(C)cc23)c(OC)c1` was tested, and the activation was inactive: -7.66%. In the case of `CC(=O)c1cccc(NS(=O)(=O)c2c(C)nc3sc(C)cn3c2=O)c1`, the activation is reported as inactive: 4%. In the case of `CCOC(=O)c1c(S(=O)(=O)NCC(=O)N2CCN(c3ccccc3OC)CC2)c(C)n(C)c1C`, the activation is reported as inactive: 0.944%. For `CCOC(=O)c1sc2ncn(CC(=O)Nc3ccc(C)cc3C)c(=O)c2c1C`, the activation was inactive: -4.38%. With `Cc1cc(C)c(/C=C/c2onc(C)c2S(=O)(=O)N2CCC(C(=O)N3CCN(c4ccccc4)CC3)CC2)c(C)c1` the activation was inactive: -9.57%. With `COC(=O)c1ccc(Cn2c(SCc3cccc(C)c3)nc3ccncc32)cc1` the activation was inactive: -12%. With `COc1ccc(S(=O)(=O)N(CC(=O)N2CCC(C)CC2)c2ccc(C)cc2)cc1` the activation was inactive: 0.506%. In the case of `CC1CCc2nc3ncn(CC(=O)Nc4cccc(C#N)c4)c(=O)c3cc2C1` (configuration not stated), the activation is reported as inactive: -15.8%. In the case of `Cc1ccc(-c2ccc(=O)n(C(C)C(=O)Nc3ccccc3Cl)n2)cc1C` (configuration not stated), the activation is reported as inactive: -3.62%. `COc1cccc(NC(=O)c2cn(C3CCCCC3)c(=O)c3c2c2ccccc2n3C)c1` was tested, and the activation was inactive: -7.6%. `CCCCNC(=O)C(CC)Sc1nnc(-c2ccc(OC)c(OC)c2)c(-c2ccc(OC)c(OC)c2)n1` (configuration not stated) was tested, and the activation was inactive: -23%. `CCc1ccccc1Nc1nn2c(=O)c3ccc(C(=O)Nc4cc(C)cc(C)c4)cc3nc2s1` was tested, and the activation was inactive: -29.5%. In the case of `Cc1cc(N2CCC(C)CC2)nc2ccc(NC(=O)CCC(=O)N3CCN(c4cccc(C(F)(F)F)c4)CC3)cc12`, the activation is reported as inactive: -7.85%. `COc1cc(Cl)c(C)cc1NC(=O)CN1c2ccccc2S(=O)(=O)c2ccccc21` was tested, and the activation was inactive: 6.7%. In the case of `O=S(=O)(Nc1ccc(-c2ccc(N3CCCC3)nn2)cc1)c1ccc(Br)cc1`, the activation is reported as inactive: -4.75%. With `COc1ccc(C(=O)NCC(c2cccs2)S(=O)(=O)c2ccc(C)cc2)cc1` (configuration not stated) the activation was inactive: 9.71%. For `Cc1ccc(-c2cc(C(F)(F)F)n3nc(C(=O)Nc4ccc(C#N)cc4)cc3n2)cc1`, the activation was inactive: -5.15%. `CCOc1ccccc1CNC(=O)CCCN1C(=O)CCn2nc(-c3cccn3C)cc21` was tested, and the activation was inactive: 18%. In the case of `CCc1ccc(-n2nc(C)c3c(C)cc(=O)n(CC(=O)Nc4ccc(OC)c(OC)c4)c32)cc1`, the activation is reported as inactive: 14.3%. For `Cc1ccc(CNC(=O)C2CCN(S(=O)(=O)c3ccc4c(c3)oc(=O)n4C)CC2)cc1`, the activation was inactive: 14.7%. For `CCOC(=O)c1c(C)[nH]c(C)c1S(=O)(=O)N1CCCC(C(=O)N2CCN(c3cc(C)ccc3C)CC2)C1` (configuration not stated), the activation was inactive: -11.9%. With `CCOc1ccc(CNC(=O)Cn2ncc3c(=O)oc4ccc(C)cc4c32)cc1` the activation was inactive: -1.1%. For `Cc1ccc(C)c(CN2C(=O)c3ccccc3S(=O)(=O)c3ccc(C(=O)N4CCOCC4)cc32)c1`, the activation was inactive: -16%. In the case of `CCC(CC)C(=O)Nc1ccccc1C(=O)OCc1cc(=O)n2nc(C3CCCCC3)sc2n1`, the activation is reported as inactive: -20.4%. With `COc1ccc(Cl)cc1N(C)C(=O)Cn1cnc2sc(C)c(S(=O)(=O)N3CCN(c4ncccn4)CC3)c2c1=O` the activation was inactive: -17.6%. With `COc1ccc(C(=O)N2CCCCC2CCN2CCCCC2)cc1` (configuration not stated) the activation was inactive: -7.35%. For `COc1ccc(Cl)cc1NC(=O)[C@H]1O[C@@H]2OC(C)(C)O[C@@H]2[C@H]2OC(C)(C)O[C@H]21`, the activation was inactive: -14.4%. In the case of `O=S(=O)(c1cccs1)N1CCN(c2ccc(Cl)cc2)CC1`, the activation is reported as inactive: -20.3%. With `COc1cccc(C2C(C(=O)Nc3cccnc3)=C(C)Nc3nc(SCc4ccccc4)nn32)c1` (configuration not stated) the activation was inactive: -3.88%. `Cc1nc2ccc(S(=O)(=O)CCC(=O)Nc3ccccc3C)cc2s1` was tested, and the activation was inactive: -8.34%. With `CCOC(=O)c1ccc(NC(=O)C2CCCN(c3ncnc4onc(C)c34)C2)cc1` (configuration not stated) the activation was inactive: -4.56%. For `Cc1ccc(NC(=O)Cn2c(=O)oc3cc(S(=O)(=O)N4CCCC4)ccc32)cc1F`, the activation was inactive: 21.5%. In the case of `COc1ccc(NC(=O)CSC2=Nc3ccccc3C3=NC(CCC(=O)NCc4ccco4)C(=O)N23)cc1` (configuration not stated), the activation is reported as inactive: -16.1%. `COc1ccccc1N1CCN(CCCNC(=O)Cn2ncc3c([nH]c4ccccc43)c2=O)CC1` was tested, and the activation was inactive: -14.4%. With `O=C(CC1NCCNC1=O)Nc1cccc(F)c1` (configuration not stated) the activation was inactive: -7.95%. For `Cc1ccc2ncc3c(-c4ccccc4)nn(CC(=O)NC4CCCCC4)c3c2c1`, the activation was inactive: 6.17%. `CCc1ccc(CN2CCc3nc(Nc4ccc5c(c4)OCCO5)ncc3C2)cc1` was tested, and the activation was inactive: -21.8%. For `CCc1ccc(CNc2nc3nc(C)c(Cc4ccccc4)c(=O)n3[nH]2)cc1`, the activation was inactive: 3.77%. With `CCc1ccc(-c2nc(SCC(=O)NCCOC)c(-c3ccc(C)cc3)[nH]2)cc1` the activation was inactive: -28.9%. `COc1ccccc1CNC(=O)C(=O)NCC(c1ccc2c(c1)OCO2)N1CCOCC1` (configuration not stated) was tested, and the activation was inactive: 1.66%. `CCc1ccc2nc(N3CCN(C(=O)c4ccco4)CC3)sc2c1` was tested, and the activation was inactive: 8.88%. With `COc1ccc(CCNc2oc(COc3ccc(Cl)cc3)nc2C#N)cc1OC` the activation was inactive: 38.1%. With `CC(=O)c1cccc(NC(=O)C2=CC(c3ccco3)=NS(=O)(=O)N2C)c1` the activation was inactive: 1.87%. `COc1ccc(Nc2nnc(-c3ccc(C)c(S(N)(=O)=O)c3)c3ccccc23)cc1` was tested, and the activation was inactive: 26.8%. In the case of `CSc1nn(Cc2cccc(F)c2)c(N(C(C)=O)C(C)=O)c1S(=O)(=O)c1ccccc1`, the activation is reported as active: 83.3%. `CCc1cccc(C)c1NC(=O)c1cnn(-c2ccc(F)cc2)c1-n1cccc1` was tested, and the activation was inactive: 0.735%. For `CCOc1ccc(S(=O)(=O)Nc2ccc(-c3ccc(N4CCCC4)nn3)cc2)cc1`, the activation was inactive: 7.19%. In the case of `Cc1cccc(S(=O)(=O)c2cn(Cc3ccccc3)c3cc(N4CCCC(C)C4)c(F)cc3c2=O)c1` (configuration not stated), the activation is reported as inactive: -12.2%. In the case of `Cc1cccc2sc(N3CCN(C(=O)c4ccco4)CC3)nc12`, the activation is reported as inactive: 8.61%. For `Cc1cc(NC(=O)C2CCCN(S(=O)(=O)c3cccc4nonc34)C2)ccc1Br` (configuration not stated), the activation was inactive: 3.81%. For `Clc1ccc(CSc2nc(NCCc3ccccc3)c3ccccc3n2)cc1`, the activation was inactive: -7.31%. For `CCC(=O)N1CCc2cc(S(=O)(=O)NC(CC(C)C)C(=O)Nc3ccc(CC)cc3)ccc21` (configuration not stated), the activation was inactive: -7.9%. For `O=C(CN1N=C(c2ccc(Cl)cc2)CCC1=O)NCc1ccc(F)cc1`, the activation was inactive: -20%. With `O=C1Nc2ccccc2Oc2cc(Oc3ccc(Cl)cc3)ccc21` the activation was inactive: 6.13%. For `COc1ccc(OC)c(CNCc2c(C(=O)O)n(Cc3ccccc3)c3cc(OC)ccc23)c1`, the activation was inactive: 17.8%. In the case of `COc1ccc(-c2onc(C)c2C)cc1S(=O)(=O)N1CCC(C)CC1`, the activation is reported as inactive: -9.01%. With `CCc1ccc(NC(=O)c2ccc(CN3C(=O)C(C)=C(c4ccc(C)cc4)S3(=O)=O)cc2)cc1` the activation was inactive: -4.51%. In the case of `Cn1c(=O)c2[nH]c(-c3ccc(S(=O)(=O)O)cc3)nc2n(C)c1=O`, the activation is reported as inactive: 5.24%. `COc1cccc(-c2nc(C(N)=O)c3c(n2)n(-c2ccc4c(c2)OCO4)c(=O)n3C)c1OC` was tested, and the activation was inactive: -10.6%. With `Cn1c(C(=O)NCc2cccc(F)c2)cc2cc(S(=O)(=O)N3CCCCC3)ccc21` the activation was inactive: -8.12%. For `CCOc1ccccc1NC(=O)CSc1cc(=O)n(CC)c2ccccc12`, the activation was inactive: 13.9%. `COc1ccccc1CCNC(=O)c1cccn1-c1nnc(N2CCCCC2)s1` was tested, and the activation was inactive: 21.9%. `O=C(Cn1cc(S(=O)(=O)Cc2ccc(F)cc2)c2ccccc21)NCc1ccccc1` was tested, and the activation was inactive: -12.4%. In the case of `CC(=O)c1cc(-c2ccccc2)n(CCC(=O)Nc2cc(C)cc(C)c2)c1C`, the activation is reported as inactive: -26.5%. With `CCOc1ccc(-c2cc(C(F)(F)F)c(C#N)c(SCC(=O)Nc3ccccc3)n2)cc1` the activation was inactive: 4.95%. For `C[C@@H]1CN(c2c(F)c(N)c3c(=O)c(C(=O)O)cn(C4CC4)c3c2F)C[C@H](C)N1`, the activation was inactive: 7.84%. In the case of `Cc1cccc(NC(=O)CSc2nc(C)c(Cc3ccccc3)c(=O)[nH]2)c1`, the activation is reported as active: 68.4%. In the case of `CCCNC(=O)CN1C(=O)c2cccnc2Sc2ccccc21`, the activation is reported as inactive: -9.76%. For `COc1ccccc1N1CCN(C(=O)c2c3c(nc4ccccc24)C(=O)N(C2CCCCC2)C3)CC1`, the activation was inactive: -17.3%. `Cc1ccc(C)c(N2CCN(C(=O)c3c4c(nc5ccccc35)C(=O)N(C3CCCCC3)C4)CC2)c1` was tested, and the activation was inactive: -11.8%. In the case of `COc1ccc(-c2nc(CNS(=O)(=O)c3ccc(F)cc3)cs2)cc1`, the activation is reported as inactive: -17.9%.
